Results: PubChem BioAssay AID504332 (National Center for Advancing Translational Sciences (NCATS), 2011)
Out of some 350,000 compounds screened, about 31,000 (8.9%) were called active. This list was built around the results that the source calls inconclusive (neither active nor inactive); the mix of calls is not that of the screen. Calls come from the whole dose curve; as a rule, active = well fitted inhibition curve with a large enough effect; inconclusive = small, poorly fitted or top-dose-only effect; inactive = no such curve, though single readings can be large or run the other way. Where the call is inconclusive, the potency comes from a doubtful curve fit. More than one record can exist for a structure, and the calls need not agree.

Biological target: Histone-lysine N-methyltransferase EHMT2 (Homo sapiens) (UniProt Q96KQ7)
Assay: qHTS Assay for Inhibitors of Histone Lysine Methyltransferase G9a; note: nearly all actives have a fitted effect of over 75% in size
Details: G9a H3K9 monomethylation, AlphaScreen, 2 h; activity, negative = inhibition: at 59 µM (top of the series) unless noted
Outline: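 Quantitative HTS format: methyltransferase activity on a biotin-tagged H3K9 peptide is measured by AlphaScreen, using a rabbit anti-monomethyl-H3K9 antibody with streptavidin donor and anti-IgG acceptor beads. Final levels are 20 nM enzyme, 500 nM peptide, 20 uM SAM; 2 h RT.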
% is set by controls: 0 for no effect and ±100 for the full control effect; potency is the fitted concentration of half-maximal effect; tags give direction and shape of the fitted curve.

Chain of UniProt Q96KQ7 (Q96KQ7 whole entry, looked up): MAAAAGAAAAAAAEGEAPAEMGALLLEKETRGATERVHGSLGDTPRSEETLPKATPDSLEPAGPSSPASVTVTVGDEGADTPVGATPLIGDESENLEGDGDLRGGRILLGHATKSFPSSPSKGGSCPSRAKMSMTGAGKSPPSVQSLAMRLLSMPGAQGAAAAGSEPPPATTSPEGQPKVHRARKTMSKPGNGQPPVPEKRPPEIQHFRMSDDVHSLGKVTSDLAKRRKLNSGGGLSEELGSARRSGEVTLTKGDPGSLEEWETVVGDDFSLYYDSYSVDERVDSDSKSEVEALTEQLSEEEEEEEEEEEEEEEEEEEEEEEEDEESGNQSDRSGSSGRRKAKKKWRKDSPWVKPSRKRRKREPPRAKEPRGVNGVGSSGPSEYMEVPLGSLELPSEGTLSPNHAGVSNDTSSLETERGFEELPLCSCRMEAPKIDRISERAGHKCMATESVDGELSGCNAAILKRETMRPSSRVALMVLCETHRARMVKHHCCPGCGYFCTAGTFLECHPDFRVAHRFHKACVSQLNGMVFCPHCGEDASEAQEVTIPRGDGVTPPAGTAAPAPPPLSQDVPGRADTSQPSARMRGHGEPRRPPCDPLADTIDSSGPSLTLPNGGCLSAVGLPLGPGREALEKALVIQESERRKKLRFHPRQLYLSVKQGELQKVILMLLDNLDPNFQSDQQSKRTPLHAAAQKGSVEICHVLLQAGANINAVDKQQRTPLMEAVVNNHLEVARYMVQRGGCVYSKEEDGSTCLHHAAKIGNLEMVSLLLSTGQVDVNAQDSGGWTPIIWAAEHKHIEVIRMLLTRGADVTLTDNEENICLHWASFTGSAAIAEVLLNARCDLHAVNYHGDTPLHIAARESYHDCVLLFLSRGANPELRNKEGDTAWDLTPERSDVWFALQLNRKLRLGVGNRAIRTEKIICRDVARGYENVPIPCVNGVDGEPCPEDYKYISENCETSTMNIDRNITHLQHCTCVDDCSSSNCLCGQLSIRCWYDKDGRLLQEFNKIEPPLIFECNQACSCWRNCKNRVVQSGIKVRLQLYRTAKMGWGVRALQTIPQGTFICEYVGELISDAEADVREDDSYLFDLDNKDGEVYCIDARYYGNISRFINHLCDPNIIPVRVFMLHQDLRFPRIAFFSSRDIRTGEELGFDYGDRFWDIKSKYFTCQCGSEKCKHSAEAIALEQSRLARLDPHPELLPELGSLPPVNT

Compound	Potency	activity, negative = inhibition
COC(=O)c1cccc(NC2CC(=O)N(c3ccc(OC)c(OC)c3)C2=O)c1 (stereo not drawn)	inconclusive: 31.6 µM [inhibitor, single point]	
Cc1ccc(C(=O)O)cc1NC(=O)C1=CSCCO1	active: 50.1 µM	
COc1ccc(OCC(=O)OC(C)CN2CCOCC2)cc1 (stereo not drawn)	inconclusive: 39.8 µM [inhibitor, single point]	
Nc1c(S(=O)(=O)c2cccc(Cl)c2)c2nc3ccccc3nc2n1CCN1CCOCC1	inconclusive: 56.2 µM [inhibitor, single point]	
O=S(=O)(c1ccc(-c2csc(-c3cccnc3)n2)cc1)N1CCOCC1	inconclusive: 44.7 µM [inhibitor, partial curve, poor fit]	
CCN1CCN(c2ccc(S(=O)(=O)N3CCOCC3)cc2NC(=O)C(C)Oc2cccc(Cl)c2)CC1 (stereo not drawn)	inconclusive: 56.2 µM [inhibitor, partial curve, poor fit]	
CCOC(=O)c1nnc(-c2ccc(C)cc2)nc1N1CCSCC1	inconclusive: 39.8 µM [inhibitor, single point]	
COc1cc(OC)cc(C(=O)NCCc2cnc[nH]2)c1	inactive	
CC1CCC2(CC1)NC(=O)N(CC(=O)N1CCN(S(=O)(=O)c3ccc4c(c3)CCC4)CC1)C2=O (stereo not drawn)	inconclusive: 8.91 µM [inhibitor, single point]	
O=C(OCC(=O)N1CCCC1=O)c1nc(Cl)ccc1Cl	inactive	
CS(=O)(=O)c1ccc2nc(NC(=O)CN3CCOCC3)sc2c1	inconclusive: 89.1 µM [inhibitor, single point]	
Cn1cnc2c(ncn2[C@@H]2O[C@H](CO)[C@@H](O)[C@H]2O)c1=N	inactive	
CCOc1ncccc1C(=O)Nc1ccccc1C(=O)NCc1ccc2c(c1)OCO2	inconclusive: 79.4 µM [inhibitor, partial curve, poor fit]	
CC(C)CCNC(=O)C1(O)c2ccccc2NC(=O)N1c1ccc(Cl)cc1 (stereo not drawn)		inactive: 15.9% [at 0.501 µM]
Cc1ccc(S(=O)(=O)n2nc(-c3ccco3)nc2NCc2ccccc2Cl)cc1	inconclusive: 25.1 µM [inhibitor, partial curve, poor fit]	
CC(=O)NCCCC(=O)NNC1CC(=O)N(c2cccc(Cl)c2)C1=O (stereo not drawn)	active: 5.62 µM	
Cc1cc(NC(=O)/C=C/c2ccco2)ccc1NC(=O)c1ccccc1	inconclusive: 89.1 µM [inhibitor, single point]	
O=C(Nc1ccc(Cl)cc1)c1cncs1		inactive: -0.766% [at 2.33 µM]
Cc1cccc(Cn2cnc3c(cnn3-c3ccc(Cl)cc3)c2=O)c1	inactive	
Cc1ccc(C)c(S(=O)(=O)N2CCN(CC(=O)N3CCc4ccccc4C3)CC2)c1	active: 6.31 µM	
Nc1nc2ccc(N3CCOCC3)cc2s1	inconclusive: 3.55 µM [inhibitor, single point]	
CN(CCO)C1=NS(=O)(=O)c2cc([N+](=O)[O-])ccc21	active: 79.4 µM	
Cn1cccc1Cc1nnc(SCC(=O)N2CCN(c3ccccc3)CC2)n1-c1ccc(F)cc1		inconclusive: -61.8% [inhibitor]

Compound	Potency	activity, negative = inhibition
c1ccc(Nc2c3c(nc4ccccc24)CCC3)cc1	inconclusive: 50.1 µM [inhibitor, partial curve, poor fit]	
O=C(NN1C(=O)C2C3C=CC(O3)C2C1=O)c1cccc(Br)c1 (stereo not drawn)	inconclusive: 17.8 µM [inhibitor, full curve, poor fit]	
COCCN1CCn2c(nc3cc(NC(=O)c4cccs4)ccc32)C1	active: 20 µM	
CC1CN(c2c(F)c(N)c3c(=O)c(C(=O)O)cn(C4CC4)c3c2F)CC(C)N1 (stereo not drawn)	inactive	
Cc1cccc(N=CC=C2OC(C)(C)C(C)(C)O2)c1	inconclusive: 3.16 µM [inhibitor, single point]	
O=C(C1=C(O)C(=O)N(CC2CCCO2)C1c1cccnc1)c1ccco1 (stereo not drawn)	active: 39.8 µM	
CCCCCN(C(=O)CCC(=O)OC(C)C(=O)NCc1ccccc1)c1c(N)n(CCCC)c(=O)[nH]c1=O (stereo not drawn)	inconclusive: 20 µM [inhibitor, full curve]	
Cc1ccc2nc(N3CCN(C(=O)c4ccco4)CC3)sc2c1	inconclusive: 44.7 µM [inhibitor, partial curve]	
COc1cccc(NC(=S)C(C#N)=C2N(C)c3ccccc3N2C)c1	inconclusive: 89.1 µM [inhibitor, single point]	
COc1ccc(CN2CCC(C(=O)N3CCN(c4ccccc4F)CC3)CC2)cc1OC	inconclusive: 10 µM [inhibitor, partial curve, poor fit]	
Cn1ccc2cc(-c3csc(N4CCC(C(N)=O)CC4)n3)ccc21		inactive: -25% [at 12.7 µM]
COc1ccc(NC(=O)Cn2cccc2)cc1Cl	inconclusive: 50.1 µM [inhibitor, partial curve]	
CCCC(=O)N(Cc1cc(=O)[nH]c2ccccc12)c1ccc(C)cc1C	inconclusive: 89.1 µM [inhibitor, single point]	
CCOC(=O)c1cccc(C2=CC(=O)CC(C)(C)C2)c1		inactive: -11.9% [at 0.501 µM]
CCn1c(=O)cc(SCC(=O)NCCC2=CCCCC2)c2ccccc21	inconclusive: 79.4 µM [inhibitor, partial curve, poor fit]	
Cc1ccccc1OCC(=O)Nc1cc(S(=O)(=O)N2CCCCC2)ccc1N1CCN(C)CC1	inactive	
O=C(NC1CC(=O)N(c2cccc(F)c2)C1)C(c1ccccc1)c1ccccc1 (stereo not drawn)	inactive	
CSC1=C(C#N)C(c2ccccc2C)C(C#N)=C(N)N1 (stereo not drawn)	inconclusive: 39.8 µM [inhibitor, single point]	
CCOC(=O)c1ccc(N2C(=O)c3n[nH]c(-c4ccco4)c3C2c2ccc([N+](=O)[O-])cc2)cc1 (stereo not drawn)	inconclusive: 22.4 µM [inhibitor, single point]	
CC/C(O)=C1\C(=O)CC(c2ccccc2)CC1=NCCc1c(C)[nH]c2ccc(C)cc12 (stereo not drawn)	inactive	
COc1cc(OC)c(NC(=O)Nc2c(C)n(C)n(-c3ccccc3)c2=O)cc1Cl	inactive	
Cc1ccc(C(=O)C2=C(O)C(=O)N(CCN3CCOCC3)C2c2ccccn2)o1 (stereo not drawn)	active: 2.24 µM	
CC(=O)N1c2ccc(S(=O)(=O)N(C)CC(=O)NC3CCCCC3C)cc2CC1C (stereo not drawn)	inconclusive: 28.2 µM [inhibitor, partial curve, poor fit]	

Compound	Potency	activity, negative = inhibition
CN(CC(=O)Nc1c(Cl)cccc1Cl)C(=O)CCC(=O)c1ccccc1	active: 50.1 µM	
Cc1cnc(C(=O)OCC(=O)c2ccccc2)cn1	inconclusive: 70.8 µM [inhibitor, partial curve, poor fit]	
Cc1cc(C)c2sc(NC(=O)c3ccc(S(=O)(=O)N4CCOCC4)cc3)nc2c1	inactive	
c1ccc(-n2nnnc2Oc2ccc(-c3nnco3)cc2)cc1	inconclusive: 3.98 µM [inhibitor, single point]	
COC(=O)c1ccccc1NC(=O)c1ccc2c(=O)n3c(nc2c1)CCCCC3	inactive	
Cc1ccc(S(=O)(=O)N2CCC(NC(=O)c3cccnc3)CC2)cc1Cl	inactive	
CN(C)C(=O)c1ccc(-c2nccc(N(C)Cc3ccco3)n2)cc1		inactive: 1.91% [at 0.501 µM]
CCc1nc(SCC(=O)c2cccc([N+](=O)[O-])c2)n[nH]1	inconclusive: 10 µM [inhibitor, partial curve]	
CC(C)NC(=O)/C(C#N)=C/c1cccc(NC(=O)c2ccccc2Cl)c1	inconclusive: 0.794 µM [inhibitor, full curve]	
C/C(=N\NC(=O)c1ccc(Cn2cc([N+](=O)[O-])cn2)o1)c1cccc(NC(=O)C(C)C)c1	inconclusive: 100 µM [inhibitor, single point]	
Cc1ccc(S(=O)(=O)N/N=C/c2ccccc2O)cc1[N+](=O)[O-]	inconclusive: 44.7 µM [inhibitor, partial curve, poor fit]	
Cc1ccc2nc(-c3ccc(NC(=O)CN4CCN(c5ccccn5)CC4)cc3)sc2c1	inconclusive: 89.1 µM [inhibitor, partial curve, poor fit]	
CCOc1ccc(NC(=O)CC2C(=O)N(C)C(=S)N2CCCc2ccccc2)cc1 (stereo not drawn)	inconclusive: 89.1 µM [inhibitor, single point]	
NC(=O)c1ncn([C@@H]2O[C@H](CO)[C@@H](O)[C@H]2O)c1O	active: 25.1 µM	
Cc1ccc(NC(=O)CCN2C(=O)NC(C)(C)C2=O)cc1F	inconclusive: 89.1 µM [inhibitor, single point]	
CCOC(=O)c1cc(NC(=O)c2ccc(Cl)cc2)c(=O)n2c1oc1ccccc12	inactive	
COc1ccc(Nc2c3c(nc4ccc(NC(=O)/C=C/c5cccc(OC)c5OC)cc24)CCCC3)cc1OC	active: 11.2 µM	
COc1ccc(-c2ncc(CN3CCC(CO)(Cc4cccc(OC)c4)CC3)cn2)cc1	inconclusive: 89.1 µM [inhibitor, partial curve, poor fit]	
O=C1CC(N2CCN(c3ccc(Cl)c(Cl)c3)CC2)C(=O)N1 (stereo not drawn)	inconclusive: 79.4 µM [inhibitor, single point]	
COc1ccccc1NC(=O)c1ccc(NC(=O)COC(=O)C(C)C)cc1	inactive	
CN(Cc1ccccc1)C(=O)CN1CCN(S(=O)(=O)c2ccc(Cl)c(Cl)c2)CC1	inconclusive: 22.4 µM [inhibitor, single point]	
COc1ccc(C(=O)N/N=C/c2ccc(OC)c(COc3c(F)c(F)cc(F)c3F)c2)cc1	inconclusive: 14.1 µM [inhibitor, full curve]	
